Measurements as given in the supplement of paper PMC11417369.
The list shows a part of the results.

Each sequence was assayed on PF3D7_0420300 AP2 domain 1 (GST-tagged) (assay: gcPBM binding intensity (ln(normalized median fluorescence intensity)); higher = stronger DNA binding).
Summary of the method: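 Binding intensity is defined as the maximum Masliner-normalised natural-log median intensity across replicate spots for either probe orientation. It was measured on an Agilent 4 × 180k array of primer-extended double-stranded 36-bp intergenic genomic probes and negative controls, to which GST-tagged P. falciparum DNA-binding domains made in E. coli were applied for 1 h in 1× PBS with 1% milk, 0.2 mg/ml BSA, 0.5% salmon testes DNA and 0.03% Triton X-100. Detection was by Alexa488 anti-GST antibody and scanning at 488 nm.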

Row | Sequence | gcPBM binding intensity (ln)
1 | AAAAAAAATAATAATACACACAATATGATATGTACA [CACACA_site850] | 9.72
2 | TTTTTATATTTTTGCACACATTCTTTACTCTTCAAA [CACACA_site2210] | 9.71
3 | TATATATATGGACACACACACATATAAATAAATAAA [CACACA_site4406] | 10
4 | TTAAAAAAAAAACACACACACATACACATATATATA [CACACA_site3299] | 10.1
5 | TTTTTTTTTTTTTTTTTTTCTATTTTACTGTTTCGT [CACACA_negctrl_site850] | 8.29
6 | ATAATTAATAAATAATGTACATATATATTATATTTT [XGTACX_site8546] | 9.19
7 | TGTGAAGTACCGAATGTGCACTGTGTGTGTTCTTTT [GTGCAC_site9613] | 9.74
8 | TTACCGTAAAAATTTTGTACATAAAATAATATATAA [XGTACX_site532] | 9.14
9 | CACATACATATATATACACACAAATATATATACACA [CACACA_site8164] | 9.76
10 | GTATGTGTGTCAAGTCGTACTTACCTTTAAATTTTT [XGTACX_site2507] | 9.7
11 | GATATAAAATATTGGTGTACTTTTTTTTTTTTTTTT [XGTACX_site7174] | 9.23
12 | ACCATGAAAATATTATGTACATATGTATTATATATA [XGTACX_site408] | 9.21
13 | GAGTGAGCTAATAAAAGTACGTAATAAACAAACGCA [XGTACX_site131] | 9.47
14 | ATAGCTGTATTTAATACACACAAAACTTTCATTCCA [CACACA_site5868] | 9.42
15 | TTTTTTTGTTTTGTTTTTTTTTTTTTTTTTTTTTTG [CACACA_negctrl_site570] | 9.23
16 | AAAAATATATAAAGAAAAAGAATATAATATAAAATA [GTGCAC_negctrl_site208] | 9.46
17 | ATTGTAGAATTTAATAGTACTCACGAATAAAATAAA [XGTACX_site6280] | 9.15
18 | GTTTATGTTAAACCATGTACTTAATATTTTATTCTT [XGTACX_site3761] | 9.4
19 | AAAAAAAAAGTATTATGTACATAAAAATAAAAAAAT [XGTACX_site4166] | 9.42
20 | TATTAAAATATGTCAGTTCTTAAAAAGTTGATGAGT [GTGCAC_negctrl_site77] | 9.08
21 | TATGATTCATAATAGTGTACGTAAAAATTGACTAGA [XGTACX_site5376] | 9.23
22 | ATTCAAAATAATAGAATTGTTAAAGTTGTAAATTGA [CACACA_negctrl_site727] | 8.97

Row | Sequence | gcPBM binding intensity (ln)
23 | TATAATATGAACAGTACACACAAAATAAATTCGTAT [CACACA_site3586] | 9.86
24 | CTCAAACAATATTATATAATAAAGTACATATATATT [CACACA_negctrl_site446] | 9.18
25 | TATATTTTTATATTTTGTACATATAGTAAATATAAA [XGTACX_site4768] | 8.98
26 | AAAAATAAATATACATGTACTTAAAATAATCGAATA [XGTACX_site8432] | 9.41
27 | ACGTATCAAAAAATTTGTACATATATATATATATAT [XGTACX_site1024] | 9.28
28 | GAACAGAAAAAGAATAGTACATATATATATATATAT [XGTACX_site3700] | 9.26
29 | ATGATAGTATGTATGAGTACGAAAAAAAAAAATTAA [XGTACX_site32] | 9.25
30 | AAATGCAAATGATGATGTACATACAAAAATTAAATT [XGTACX_site5323] | 9.42
31 | ATATATATATATATTGTACACACATTTATGCATATA [CACACA_site9055] | 9.69
32 | TGTGGGAATAACCACACACACACACCCATATATATA [CACACA_site5876] | 10.1
33 | ATATATATATATATATGTACATATCACTTTAAATAT [XGTACX_site3859] | 9.14
34 | TTTTCTTAAAAAATCAAACACACATATATATATACA [CACACA_site2297] | 9.28
35 | TATCGTTATATAATATGTACATATAAAATTTAAATT [XGTACX_site1887] | 9.1
36 | AAAATGTATATATAAACATGCACACGTGGTTGTATA [TGCATGCA_site847] | 9.56
37 | TATATATTATGACCACCACACACCTATACGCATAAC [CACACA_site2447] | 9.53
38 | TCTTAAATTTCTTTATGTACATAATTAATATATTTA [XGTACX_site4456] | 9.11
39 | TTGAAATTAAATGACATACACACTATATTATATATT [CACACA_site3135] | 9.32
40 | AAAAATAAAGTAAAAGCATGCTAGTATATGGAAAAT [TGCATGCA_site486] | 9.5
41 | CATATACGCAAACACACACACATATATATATATATA [CACACA_site501] | 10
42 | AGGTATATATATTTATGTACTTAAAATGAGAAAATA [XGTACX_site8337] | 9.21
43 | TATAATAATATTTATTGTACAATTAGGTTAATTCAT [XGTACX_site1986] | 9.13
44 | AATCTAATGTAATGCATACACACAACTATCCATCAA [CACACA_site535] | 9.53

Row | Sequence | gcPBM binding intensity (ln)
45 | TAAAATGAAGGAATATGTACATAAATAAACATATAT [XGTACX_site6266] | 9.48
46 | AATATACGAAATTGTGCACACATATATTTATGTATG [CACACA_site1510] | 9.58
47 | CATATATGATATATTAGTACATATATATATATATAT [XGTACX_site1574] | 9.1
48 | CGATATAAAGATATTAGTACATATGCATGCTTGTCT [XGTACX_site8629] | 9.32
49 | AAAACATACAGATATACACACATATATATATATATA [CACACA_site5091] | 9.53
50 | ATATAGATCTACACTGCACACATTTTTAACACTGCT [CACACA_site1882] | 9.66
51 | ATATTTAAACGATGGTGTACATATATTACAAGTTGT [XGTACX_site1743] | 9.48
52 | ACGCATGTAATTTATACACACATTCTTTTATATTTT [CACACA_site3708] | 9.59
53 | TATACATATATATATACACACATATATATATATACA [CACACA_site402] | 9.4
54 | AAATTATTATCGTTAATATGTATATATGTGCCAAGT [TGCATGCA_negctrl_site557] | 9.34
55 | GCATTTTAATAATTATGTACATATATTATTCCTGGT [XGTACX_site3664] | 9.37
56 | TTCCATCAAAAAATGGGTACACATTATAGAAATATT [XGTACX_site8482] | 9.15
57 | AAGAAAAACATTACGTGTACCAAAAGGCCTGTCAAC [XGTACX_site267] | 9.64
58 | GTAACAAATAAAATAACACACATGTCGAAATGTATG [CACACA_site2971] | 9.7
59 | ATAATTATATAAATATATATAATATATATATGAAAA [XGTACX_negctrl_site357] | 9.05
60 | AAAATGGGTTAGCACATACACACCAATATATTATAT [CACACA_site3082] | 9.59
61 | CAATTAAATATATGAACACACATGTGAACTTTCTAT [CACACA_site3977] | 9.41
62 | AAATACCTGATATATACACACTATGTTTTTCTTTTT [CACACA_site6680] | 9.62
63 | TATTAAATTATATAGACACACATTATATATATATAT [CACACA_site4345] | 9.35
64 | AAAAAGAAATATTTATGTACATAATAATAATATTTT [XGTACX_site4693] | 9.07
65 | AATATAGATACATATACACACACACCCATACATATA [CACACA_site9137] | 10.1
66 | GTAAGATTTCTTGTTGCATGCGGTAAAAAGTAAAAT [TGCATGCA_site469] | 9.21

Row | Sequence | gcPBM binding intensity (ln)
67 | TAGATAAATGGGTATACACACATATACATAAATATA [CACACA_site375] | 9.56
68 | TACACCCACCAACACACACACACACCCAAAAAAAAA [CACACA_site498] | 10.1
69 | AACTTTATACTTTTTTGTACTTAACCCTTACATTTT [XGTACX_site5798] | 9.63
70 | TTTATGAAACAGTGCACACATAAAAATATATACATA [CACACA_site2992] | 9.44
71 | TTTATATATTTATTCACACATATAATATTCCGTCGT [CACACA_site6120] | 9.29
72 | TATAGATGTATGTACATACACACATATATAAATAAA [CACACA_site1789] | 9.38
73 | TGTTAATTTATATTATGTACTTATAATTATCGTTTG [XGTACX_site1032] | 9.38
74 | ATAATTCTAAATAAATGTACACACAAAAATAAATGT [XGTACX_site3547] | 9.76
75 | GTTAATTGAAGATTCACACATAAATATATATATAAT [CACACA_site5482] | 9.18
76 | TAACGCATGAATATAATATATATATATATAAAAATA [GTGCAC_negctrl_site218] | 9.01
77 | ATTGTATGCACGTCTGCACACTTTTTTTTTTTTTTT [CACACA_site2082] | 9.36
78 | TTCTATAAGTATAAATGTACAAAAAAAACATCATTC [XGTACX_site5450] | 9.34
79 | CATATTCCAAGAATGTGTACATAATTTTTTTTTTTT [XGTACX_site4310] | 9.07
80 | CTCATAATTTCTGAACGTACGTATTTCTCATTTTTA [XGTACX_site7296] | 9.37
81 | ATTTTTTTTTAATGCAAAAGGTGATGATCGGTCATA [CACACA_negctrl_site959] | 8.89
82 | TAATTATAAATTATAGTGCATAAAATTGTAGCATAA | 9.15
83 | AAAATATGATATGAAAAATTTGTTATATATACATAA [CACACA_negctrl_site1529] | 9.12
84 | GACATTTGTGAGCTTGAGCCGTCAAACCACTAAATA [CACACA_negctrl_site552] | 9.03
85 | TGTATTAATATGGTAATACACACTAATATACTTTTG [CACACA_site1610] | 9.38
86 | AACATAATAAAAATGGATATAATTCAAAGTTTGTAA [TGCATGCA_negctrl_site529] | 9.25
87 | TGTTATTCGACATATACACACAAATAACAATTTAAA [CACACA_site5076] | 9.35
88 | AAAAAATTGAAGGAGTGTACATTTATACTTTATTTT [XGTACX_site8623] | 9.19
